Counter-ions that a name gives are not always drawn.
Columns and labels:
[1] = tested on: HeLa Kyoto cells; details: MTT
[2] = tested on: clathrin-mediated uptake of transferrin; details: HeLa Kyoto, 10 μM, 10, 20 and 30 min

SMILES | TC50 SFV (7 h) [1] [µM] | Transferrin internalisation compared to DMSO controls [2]
CCCCc1oc2ccccc2c1C(=O)c1cc(I)c(OCCN(CC)CC)c(I)c1 [Amiodarone, Amiodarone hydrochloride] | 96.8 | –
CC(C)(C)c1cc(C=C(C#N)C#N)cc(C(C)(C)C)c1O [Tyrphostin A9] | >50 | inhibit both virus and transferrin internalisation
